This sample is rich in variants without activity.
B1: TPR 5TU (parent)
chain: GGAUCUUCUCGAUCUAACAAAAAAGACAAAUCUGCCACAAAGCUUGAGAGCAUCUUCGGAUGCAGAGGCGGCAGCCUUCGGUGGCGCGAUAGCGCCAACGUUCUCAACUAUGACACGCAAAACGCGUGCUCCGUUGAAUGGAGUUUAUCAUG

Variants of: B1
Assay: polymerase ribozyme fitness, log enrichment relative to wild type (log ratio); higher = more active; in vitro selection for triplet polymerase activity
Summary of the method: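 Mutant libraries were PCR-built and transcribed for each subunit of a heterodimeric triplet polymerase ribozyme and selected for one round in triplicate at −7 °C, frozen, before gel excision of extended constructs and streptavidin-bead capture. Input and output libraries were Illumina-sequenced, keeping genotypes with ≥10 input reads and ≥1 read per output. Fitness is a logarithmic ratio of genotype to wild-type enrichment, in base 2, using inverse-variance-weighted replicate averages.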

Variant	polymerase ribozyme fitness (log ratio)
A47G G50C C57A C72U G81A A91C A97U U127G U134G G152C	≤ -4.2
A47G G59C G92U C99A C118G	-3.37
A47G G68U G88U U90A A106G C114U U134A	≤ -4.2
A47G G68U U78C C96U A122G U134A	≤ -4.2
A47G G71U A98G C99G U102G	≤ -4.2
A47G G74A A115G	≤ -4.2
A47G G81C G92C C95A A142G	-2.95
A47G G83A U90C A115C A121U	≤ -4.2
A47G G84A G88U A98U A106U C114U G136U U148A	≤ -4.2
A47G G88A C118U U127G U139A U145G	≤ -4.2
A47G U53A	-0.375
A47G U53G C93G U111C A137C U146G	≤ -4.2
A47G U56A C87A G133U	≤ -4.2
A47G U78A G81U G86C U127G A138C	≤ -4.2
A47G U82G G86U A91U A98C U139C	≤ -4.2
A47U A49C G50A C51A G67C C95U G133U A150G	≤ -4.2
A47U A49C G68A U78C A91G C95A U148C	≤ -4.2
A47U A64G G67A	≤ -4.2
A47U A64U G81U G92U C99G	≤ -4.2
A47U A66G G67A G86C C95G C96G G124U	≤ -4.2
A47U C54G A60G G92A U101A U109G C114U G128C C129U A147U U148G	≤ -4.2

Variant	polymerase ribozyme fitness (log ratio)
A47U C57G C87U G88A	≤ -4.2
A47U C69G A89U C93U C116U G124C	≤ -4.2
A47U C76A A91U C99A C116A	≤ -4.2
A47U C76A G84A G94U C131U A142C G143C	≤ -4.2
A47U C79A C95A C103G G143C	≤ -4.2
A47U C87G U104G A122C G128A	≤ -4.2
A47U C96U A107G A137G	≤ -4.2
A47U G50A G84U A98U	-3.28
A47U G68C C85A C95A A106G U134C A150G	≤ -4.2
A47U G70C G84U C105U A120U	≤ -4.2
A47U G71A C87U G140A U148G	≤ -4.2
A47U G83A U102C G117A C131G A142G G152C	≤ -4.2
A47U G86C C95U A137G G141C	≤ -4.2
A47U G88C U102A G133A	≤ -4.2
A47U G88U A107U C129U	≤ -4.2
A47U U56A C87G A115C G141A	-3.84
A47U U56C C69G G84A A113U C123U	≤ -4.2
A47U U61A C75A C76U G88U	≤ -4.2
A47U U77C C85A C93G A107U	≤ -4.2
G48A A49C C51U C103G A110U	≤ -4.2
G48A A49G C54U U90G G92U C99U A121C U151A	≤ -4.2

Variant	polymerase ribozyme fitness (log ratio)
G48A A52C U53C G92U G94A C125A U135A G143C	≤ -4.2
G48A A52G G74A A91G C93A G143A	≤ -4.2
G48A A52U C75U A91G	≤ -4.2
G48A A60U A73U C96G A119U	≤ -4.2
G48A C51U	-1.05
G48A C57A G92A	-3.32
G48A C57A U127A A142G G143A	≤ -4.2
G48A C57G A60G C63A C99G	≤ -4.2
G48A C76A G94C A106G U127A G141C	≤ -4.2
G48A C76G C87A U90A U146A	≤ -4.2
G48A C85G A98U C99U	-3.36
G48A C87G A91U	≤ -4.2
G48A C87U	-0.447
G48A C108G U134A	≤ -4.2
G48A G50A C54A C93G U104A	≤ -4.2
G48A G50A U56G U148C	≤ -4.2
G48A G50U G88C C95G C114U	≤ -4.2
G48A G59A	-0.452
G48A G59A G86A U104G A110U	≤ -4.2
G48A G59A G88C A106G U148C	≤ -4.2
G48A G59U G94A C114A C125A	≤ -4.2

Variant	polymerase ribozyme fitness (log ratio)
G48A G62A C96A C132G U134G A147C	≤ -4.2
G48A G83U A98G G140C	≤ -4.2
G48A G86U C95U C123A	-2.89
G48A U55A A120G G141U A150U	≤ -4.2
G48A U55A C76U G83C	≤ -4.2
G48A U55A U56G G65C G136A U139C G141C	≤ -4.2
G48A U55G A142C	-2.84
G48A U102C A107G A110U	≤ -4.2
G48C A49C C103A	≤ -4.2
G48C A49G A113G	≤ -4.2
G48C A49U G50A G58A A107C U134A	≤ -4.2
G48C A73U C76A C87U U90G C96A U146G	≤ -4.2
G48C A73U U135G	≤ -4.2
G48C A91G G141U	≤ -4.2
G48C A91U A113U A115C G141A	≤ -4.2
G48C A110C G141U U148G	≤ -4.2
G48C A113C U148C	≤ -4.2
G48C C51A C93U	≤ -4.2
G48C C51U C85U C129A U145C	≤ -4.2
G48C C51U G84C U127C C132U	≤ -4.2
G48C C54U G58C C87U C123U	-1.05
